The text below walks through data of publication PMC12040169 (PLOS Biology, 2025).

The other results are listed elsewhere or left out.

For this assay, the system named is T1, C. trachomatis L2/434/Bu expressing GFP (CTL2-GFP).
T1 construct: L2/434/Bu GFP intracellular growth in HeLa cells
On the set-up: species or system HeLa; C. trachomatis total inclusion area by high-content imaging, normalised to DMSO. Particulars: total inclusion area; 28.5 h, 10 µM; inhibitor. In a few lines:
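Following bulk GFP and resorufin fluorescence reads, infected cells were fixed, Hoechst-stained and imaged on a high-content platform. Inclusion total area and number per well served as growth proxies; nuclei counts indicated host viability. MICs were derived as for the fluorescence assay.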
Consider `Nc1nnc(-c2ccc(Oc3nc(N4CCOCC4)nc(N4CCOCC4)n3)cc2)s1` [CBK266305], for which the “% of control remaining” value amounted to 138.549.

As for `COc1ccccc1-c1ncc(OC2CCN(C)C2)nc1N` (centres unmarked) [CBK145081], the “% of control remaining” value is recorded as 100.822.

For the compound `COc1ncc(-c2nccnc2OCc2cccs2)c(OC)n1` [CBK106750], the “% of control remaining” value is given as 103.239.

Consider `O=C(CSc1nnnn1-c1ccc(O)cc1)NC1CCCC1` [CBK295659], for which the “% of control remaining” value was found to be 74.072.

For `CC(CO)(CO)Nc1ccc(C(F)(F)F)cc1[N+](=O)[O-]` [CBK262806], the “% of control remaining” value amounted to 44.1552.

With `Cc1cc(CSc2cccs2)no1` [CBK002635], the “% of control remaining” value was found to be 87.8022.

As to `Cc1ccc(NC(=O)CCC(=O)O)c(C(=O)c2ccccc2)c1` [CBK262611], the “% of control remaining” value is listed as 114.97.

For the compound `OCc1ccccc1-c1cncc(NCc2ccc3c(c2)OCO3)n1` [CBK065318], the “% of control remaining” value is 104.35.

With `CC(=O)Nc1ccc(Sc2ccccn2)cc1` [CBK085853], the “% of control remaining” value was found to be 94.1306.

`CC1CCN(C(=S)Nc2ccccc2)CC(C)(C)C1` (centres unmarked) [CBK006185]: the “% of control remaining” value came out at 73.6983.

For the compound `c1ccc(Cc2nn3c(COc4ccccc4)nnc3s2)cc1` [CBK267163], the “% of control remaining” value came out at 117.661.

On to `Cc1cc2ccccc2n2c(SCC(=O)NCc3ccco3)nnc12` [CBK265666], for which the “% of control remaining” value worked out at 88.4184.

In the case of `CC(=O)N1CCc2c([nH]c3c(C)cccc23)C12CCN(CCOc1ccccc1)C2` (centres unmarked) [CBK039646], the “% of control remaining” value was 89.0627.

As to `c1ccc(-n2cc(-c3cncn3CCCN3CCCCC3)cn2)cc1` [CBK281465], the “% of control remaining” value is reported as 88.2978.

Consider `COC(=O)CCN(Cc1nnc(C2CC2)o1)C(C)C` [CBK304470], for which the “% of control remaining” value was 45.6578.

Turning to `COc1cccc(NC(=O)N[C@H]2CCN3C(=O)[C@@H](Cc4ccccc4)NC(=O)[C@H]23)c1` [CBK289230], the “% of control remaining” value stood at 67.9945.

For `CS(=O)(=O)c1ccc(-c2cccc(COC3CCN(C(=O)Cc4c[nH]cn4)CC3)c2)cc1` [CBK149515], the “% of control remaining” value was 89.2659.

`CC(=O)Nc1ccc(CNC(=O)CN(C)Cc2nc(C3CC3)no2)cc1` [CBK306695]: the “% of control remaining” value is 45.4801.

As for `N#Cc1ccc(-c2cnc(N)c(-c3ccc(NC(=O)CCN4CCCCC4)cc3)n2)cc1` [CBK116418], the “% of control remaining” value was determined as 76.5352.

`NCCCCCCNc1ncnc2c1ncn2[C@H]1C[C@@H](O)[C@@H](CO)O1` [CBK201260]: the “% of control remaining” value came to 82.8528.

As to `COc1cccc(C(=O)N2CCN(C(=O)c3cccc(F)c3)CC2)c1OC` [CBK263316], the “% of control remaining” value is 110.015.

On to `Cc1cc(Oc2ccc(N(C)C)cc2)cc(C2CCCNC2)n1` (centres unmarked) [CBK283442], for which the “% of control remaining” value is given as 48.2112.

Consider `Cc1cc(O)nc(C(C)N2CCOC(C(C)(C)C)C2)n1` (centres unmarked) [CBK304097], for which the “% of control remaining” value turned out to be 85.6063.

For the compound `C(=N\Nc1ccc2nn(-c3ccccc3)nc2c1)/c1c[nH]c2ccccc12` [CBK261064], the “% of control remaining” value was 99.8654.

On to `COC(=O)c1ccccc1NC(=O)Cn1cncc1-c1ccc([N+](=O)[O-])cc1` [CBK266741], for which the “% of control remaining” value came to 90.4933.

With `CCCCC1CCC(C(=O)O)CC1` (centres unmarked) [CBK122493], the “% of control remaining” value came out at 90.5333.

On to `C[C@H]1[C@@H]2[C@@H](O)C([C@H](C)C(=O)N3CCCC3)CC[C@@]2(C)CC[C@@H]1NC(=O)C1CC1` (some centres unmarked) [CBK289447], for which the “% of control remaining” value is reported as 101.611.

`CCCn1c(SC(C)C(=O)c2cc(C)n(-c3ccc(Cl)cc3)c2C)n[nH]c1=O` (centres unmarked) [CBK295595]: the “% of control remaining” value amounted to 66.7687.

For the compound `Cc1cccc(N(C)S(=O)(=O)c2ccc(N3CCCNCC3)c3ccccc23)c1C` [CBK004430C], the “% of control remaining” value was 39.3013.

In the case of `O=[N+]([O-])c1ccccc1S(=O)(=O)N1CCN(Cc2cccnc2)CC1` [CBK264168G], the “% of control remaining” value is 58.5211.

Take `O=C1C(=CNCc2ccco2)C(=O)c2ccccc21` [CBK262688]: the “% of control remaining” value is recorded as 104.207.

With `CC(=O)c1cccc(NC(=O)C2CCCN(S(=O)(=O)c3ccc(Cl)cc3)C2)c1` (centres unmarked) [CBK266847], the “% of control remaining” value stood at 110.963.

Take `COCCN(Cc1cc2cccc(C)c2nc1O)S(C)(=O)=O` [CBK269395]: the “% of control remaining” value came to 82.7438.

As for `O=C(Nc1cccc(-c2noc(CCc3ccccc3)n2)c1)c1cccs1` [CBK270225], the “% of control remaining” value amounted to 104.362.

With `CC(NC(=O)c1ccc(-n2cccc2)cc1)c1ccccn1` (centres unmarked) [CBK296619], the “% of control remaining” value was 102.886.

In the case of `N#C/C(C(=O)Nc1ccccc1)=C(/O)c1nn(-c2ccccc2)c2c1CSc1ccccc1-2` [CBK017685], the “% of control remaining” value came out at 89.7864.

On to `O=C(Cn1ccc2ccc(F)cc21)Nc1cccc(-n2cnnc2)c1` [CBK282570], for which the “% of control remaining” value worked out at 105.545.

Consider `O=C1NC2(CCc3ccccc31)CCN(C(=O)CCn1cccn1)C2` (centres unmarked) [CBK283352], for which the “% of control remaining” value is given as 104.246.

In the case of `O=c1[nH]c2ccccc2c(O)c1C1=Nc2ccccc2S(=O)(=O)N1` [CBK019929], the “% of control remaining” value is reported as 104.741.

Consider `O[C@@H]1CN(Cc2ccccc2F)CC[C@H]1N1CCCC1` [CBK282934], for which the “% of control remaining” value turned out to be 103.55.

On to `CCc1ccc(CNC(=O)Cn2nnc(-c3ccc(CNCC4CC4)cc3)n2)cc1` [CBK161032C], for which the “% of control remaining” value stood at 17.3583.

Turning to `C#CCNC(=O)C1CCCN(c2nc3ccccc3n2C)C1` (centres unmarked) [CBK282336], the “% of control remaining” value is 84.6942.

Regarding `O=c1[nH]c2ccccc2n1CCCN1CCC[C@@H]1CN1CCCC1` [CBK137111T], the “% of control remaining” value came to 107.291.

Consider `CC(C)c1c(O)c2ccccc2[nH]c1=O` [CBK159988], for which the “% of control remaining” value came to 108.012.

Regarding `Cc1noc(C)c1C(=O)N1CCCCCC1c1nn(C)cc1Cl` (centres unmarked) [CBK285106], the “% of control remaining” value was 76.8516.

For the compound `O=C(c1cccs1)N(Cc1ccco1)Cc1cc2ccccc2nc1O` [CBK269602], the “% of control remaining” value is 105.756.

For the compound `CC(C)N(Cc1cnn(C)c1)C(=O)c1cc(C2CC2)nc2ccccc12` [CBK305325], the “% of control remaining” value worked out at 72.9358.

On to `COc1ccc(F)cc1-c1cccc(CC2(C(=O)NCCc3ccccc3)CCOCC2)c1` [CBK285562], for which the “% of control remaining” value was 102.258.

Take `CCc1nccn1CC(=O)N(C)C1CCCN(Cc2ccccc2F)C1` (centres unmarked) [CBK306928]: the “% of control remaining” value is 72.1908.

With `NC(=O)c1c(NC(=O)c2ccc3ncsc3c2)sc2c1CCCC2` [CBK287369], the “% of control remaining” value was determined as 103.606.

Turning to `Cc1ccc(/C=C/C(=O)O)cc1S(=O)(=O)N1CCCc2ccccc21` [CBK264425], the “% of control remaining” value is listed as 114.553.

As for `COc1ccc(C(=O)N2CCC3(CCCN(C(=O)c4ccc5occc5c4)C3)C2)cc1OC` (centres unmarked) [CBK131665], the “% of control remaining” value was determined as 96.4974.

Turning to `O=C(NCCn1nc(-c2cccs2)oc1=O)C1CCCC1` [CBK282345], the “% of control remaining” value is 70.6738.

`CCNC(=O)Nc1ccc(-c2ccc(S(C)(=O)=O)cc2)c2ccccc12` [CBK083728]: the “% of control remaining” value turned out to be 84.9887.

Turning to `CCNC(=O)Nc1ccc2ccc(-c3ccc(SC)cc3)nc2n1` [CBK070656], the “% of control remaining” value is 44.9105.

For the compound `N#C/C(=C\c1cccn1-c1ccc(S(N)(=O)=O)cc1)c1nc2ccccc2[nH]1` [CBK266167], the “% of control remaining” value came to 83.011.

In the case of `O=C(OCc1ccccc1)Sc1nnc(-c2ccc([N+](=O)[O-])cc2)o1` [CBK264504], the “% of control remaining” value is 124.116.

`NS(=O)(=O)c1ccc(CCNC(=O)/C=C/c2ccccc2Cl)cc1` [CBK264379]: the “% of control remaining” value worked out at 109.91.

Turning to `O=C(NCc1cccs1)NC1CCCc2c1cnn2CCO` (centres unmarked) [CBK305658], the “% of control remaining” value is listed as 21.0664.

On to `CCCC/C=C/c1cnc2[nH]c(=O)n(C3CCOCC3)c2n1` [CBK064253], for which the “% of control remaining” value was 75.2467.

Turning to `CC(=O)c1ccc(-c2nccnc2N2CCCC2CO)s1` (centres unmarked) [CBK037483], the “% of control remaining” value was 92.657.

As to `COc1ccc(NC(=O)CC(C(=O)O)N2CCCCC2)cc1` (centres unmarked) [CBK267115], the “% of control remaining” value worked out at 99.0361.

As for `Cn1c(C(=O)Nc2ccc(Cn3cncn3)cc2)cc2cc(F)ccc21` [CBK281584], the “% of control remaining” value was 72.9614.

Consider `COc1ccc(CNc2cnc3ccccc3c2)c(O)c1` [CBK293951], for which the “% of control remaining” value stood at 100.108.

Regarding `C/C(O)=C1/C(=O)N(c2nc3ccccc3s2)N=C1CC(=O)O` [CBK265828], the “% of control remaining” value worked out at 119.278.

For the compound `CC(NC(=O)Cn1ccnc1-c1ccccc1)c1ccccn1` (centres unmarked) [CBK281885], the “% of control remaining” value came to 100.09.

Regarding `CCCC/C=C/c1cnc2[nH]c(=O)n([C@H](CO)C(C)C)c2n1` [CBK064970], the “% of control remaining” value was determined as 121.473.

Turning to `O=C1N=C2C=CC=CN2C(=O)C1Cc1ccccc1` (centres unmarked) [CBK287874], the “% of control remaining” value is recorded as 81.3461.

`COc1ccc(Cl)cc1Nc1nc(N)nc(CC(=O)CSc2ccc(C)cc2)n1` [CBK265200]: the “% of control remaining” value amounted to 83.9249.

As for `CCN1CCCC1CNC(=O)c1cc(Br)cnc1N1CCOCC1` (centres unmarked) [CBK076213], the “% of control remaining” value is 114.034.

As to `CC(Oc1ccc(C#N)cc1)C(=O)NCC(C)(C)N1CCOCC1` (centres unmarked) [CBK304066], the “% of control remaining” value was 36.8139.

`CC1CCc2nn(CCNC(=O)Cc3ccc(F)cc3)c(=O)cc2C1` (centres unmarked) [CBK284485]: the “% of control remaining” value worked out at 113.543.

For `Cc1c(C(=O)N(C)C2CCNCC2)nnn1-c1ccc2ncccc2c1` [CBK306500C], the “% of control remaining” value turned out to be 79.5576.

In the case of `CC(=O)c1ccc(-c2nc(-c3ccc(Cl)cc3)cnc2N)cc1` [CBK064097], the “% of control remaining” value is recorded as 77.9633.

On to `Cc1cc(C)cc(N(C(C)C(=O)Nc2ccc(C(F)(F)F)cc2)S(C)(=O)=O)c1` (centres unmarked) [CBK268834], for which the “% of control remaining” value is given as 69.9206.

`Cc1c(C(=O)O)sc(S(=O)(=O)N2CCN(C(=O)c3ccc(C(C)(C)C)cc3)CC2)c1C(=O)O` [CBK297119]: the “% of control remaining” value is 95.7796.

For `Cn1cc(CN2CCC(CNc3ccccn3)C2)cn1` (centres unmarked) [CBK304705], the “% of control remaining” value is 39.3064.

Take `COCCn1c(CN2CCCC(C)C2)nc2c1c(=O)n(C)c(=O)n2C` (centres unmarked) [CBK306063]: the “% of control remaining” value is recorded as 79.6857.

On to `O=[N+]([O-])c1ccc(S(=O)(=O)CC(CN2CCCC2)N2CCCC2)cc1` (centres unmarked) [CBK266991], for which the “% of control remaining” value came out at 84.8417.

For the compound `O=C(NCCCN1CCOCC1)c1ccncc1` [CBK264561F], the “% of control remaining” value was 111.768.
